# Measurements from article PMC4336329 (PLoS ONE, 2015).
# Out of some 310,000 compounds screened, about 2,200 (0.71%) showed an effect of 50% or more. Effects have a minus sign here. The list shows a part of the results.
# Target: human ether-à-go-go-related gene (hERG) potassium channel (human, UniProt Q12809)
# Assay: primary screen, population patch clamp on CHO cells stably expressing hERG
# human ether-à-go-go-related gene (hERG) potassium channel, sequence (Q12809 whole entry, looked up): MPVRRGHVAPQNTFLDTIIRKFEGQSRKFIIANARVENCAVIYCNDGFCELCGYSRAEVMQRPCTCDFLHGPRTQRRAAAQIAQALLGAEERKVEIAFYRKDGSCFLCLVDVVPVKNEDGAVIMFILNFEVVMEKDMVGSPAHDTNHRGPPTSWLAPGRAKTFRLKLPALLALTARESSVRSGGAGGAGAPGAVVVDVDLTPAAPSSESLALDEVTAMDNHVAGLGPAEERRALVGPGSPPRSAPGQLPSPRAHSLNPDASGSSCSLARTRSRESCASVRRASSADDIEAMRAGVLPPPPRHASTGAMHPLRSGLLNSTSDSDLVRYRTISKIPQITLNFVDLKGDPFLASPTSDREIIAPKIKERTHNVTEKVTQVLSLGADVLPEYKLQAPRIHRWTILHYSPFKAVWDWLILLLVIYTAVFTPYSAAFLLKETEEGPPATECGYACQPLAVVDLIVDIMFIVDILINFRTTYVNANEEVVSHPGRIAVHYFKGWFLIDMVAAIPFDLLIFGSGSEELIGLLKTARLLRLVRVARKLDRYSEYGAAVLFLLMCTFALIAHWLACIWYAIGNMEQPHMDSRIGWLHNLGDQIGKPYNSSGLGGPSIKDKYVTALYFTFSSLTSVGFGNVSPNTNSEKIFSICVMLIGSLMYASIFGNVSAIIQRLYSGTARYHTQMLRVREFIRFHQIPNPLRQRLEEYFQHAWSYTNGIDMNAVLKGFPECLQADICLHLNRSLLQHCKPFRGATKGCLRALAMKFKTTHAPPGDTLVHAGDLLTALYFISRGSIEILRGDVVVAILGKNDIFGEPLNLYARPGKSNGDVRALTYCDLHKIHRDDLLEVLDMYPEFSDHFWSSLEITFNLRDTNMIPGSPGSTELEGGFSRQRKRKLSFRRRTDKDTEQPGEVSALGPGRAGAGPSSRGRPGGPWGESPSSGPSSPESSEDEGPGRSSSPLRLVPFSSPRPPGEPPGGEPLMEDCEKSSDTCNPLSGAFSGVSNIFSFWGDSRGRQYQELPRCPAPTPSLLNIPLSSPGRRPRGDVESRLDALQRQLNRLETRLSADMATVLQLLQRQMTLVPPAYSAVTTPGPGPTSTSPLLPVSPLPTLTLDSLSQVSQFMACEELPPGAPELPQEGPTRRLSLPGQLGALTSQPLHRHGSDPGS
row,Structure (SMILES),"hERG current change (%, negative = inhibition) at 1uM"
1,CC(=O)c1ccc(NC(=O)Nc2cccc(Cl)c2)cc1,11.4%
2,O=C(NCC(=O)N1CCN(S(=O)(=O)c2ccc3c(c2)OCCO3)CC1)c1ccccc1Cl,14.5%
3,Cc1nn(CCO)c(N)c1C1(O)C(=O)Nc2c(Cl)cc(Cl)cc21 (stereo not drawn),17.3%
4,CCOC(=O)C1CCN(C(=O)Nc2cc(Cl)cc(Cl)c2)CC1,4.53%
5,Cn1c(Cc2cccs2)nnc1SC/C=C/c1ccccc1,8.27%
6,O=C(CCN1C(=O)c2ccccc2C1=O)NNC(=O)c1ccc(Cl)cc1Cl,13.6%
7,Cc1cc(C(F)(F)F)nc(Nc2nc(C)c3ccccc3n2)n1,15.3%
8,CC(C)N1CCc2c(sc(NC(=O)c3ccc4ccccc4c3)c2C(N)=O)C1.Cl,4%
9,O=C1C(NS(=O)(=O)c2ccc(Br)cc2)=C(N2CCCCC2)C(=O)c2ccccc21,2.82%
10,Cc1nn(C)c(C)c1C(C)NC(=O)c1ccc(OC2CCN(Cc3ccccn3)CC2)cc1 (stereo not drawn),10.5%
11,C=CCc1cccc2cc(C(=O)Nc3cccc(C(=O)O)c3)c(=O)oc12,3.48%
12,CC(=O)Nc1ccc(Nc2nc(-c3sc(C)nc3C)cs2)cc1,12.1%
13,NNC(=O)c1ccc(Cn2cc(Br)cn2)cc1,3.77%
14,CCOc1ccc(N2C(=O)CC(NCCNc3ccc(C(=O)c4cccs4)cc3)C2=O)cc1 (stereo not drawn),-48.7%
15,Cn1c(C(=O)N2CCOCC2)cc2c(=O)n3ccccc3nc21,14.4%
16,COc1ccc(Nc2nc(N3CCCC3)nc(N3CCCC3)n2)c(OC)c1,-7.81%
17,COCCCN(C(=O)c1ccc(N2CCCC2=O)cc1)c1c(N)n(Cc2ccccc2)c(=O)[nH]c1=O,17.4%
18,COc1cc(C(=O)N/N=C/c2ccc(OC(=O)c3cccc(C)c3)cc2)ccc1O,13.5%
19,O=C(Nc1ccc(Br)cc1)c1ccc(N2C(=O)C3CC=C(Cl)CC3C2=O)cc1 (stereo not drawn),10.9%
20,CCOC(=O)C1CCN(C(=O)c2cc(COc3ccc(OC)c4ccccc34)on2)CC1,8.12%
21,CN(C)c1ccc(P(=O)(OC2CCCCC2)C(O)c2ccccn2)cc1 (stereo not drawn),12.4%
22,Cn1c(=O)c2c(ncn2CC(=O)NC(C)(C)C)n(C)c1=O,12.2%
23,Cc1cc(Cl)ccc1NC(=S)NCCc1ccc(S(N)(=O)=O)cc1,0.714%
24,Cl.Nc1ccc(Cc2ccccn2)cc1,16.8%
25,CCCn1c(=O)c(C(=O)NCCCc2ccccc2)c(O)c2ccccc21,17.8%
26,COc1ccc(CCN2CC(C(=O)N(C)CCOc3ccccc3)CCC2=O)cc1 (stereo not drawn),-34.3%
27,Cc1nn(C)c(Cl)c1S(=O)(=O)N[C@@H](c1ccccc1)[C@]1(C)C[C@H]1[C@@H](C)C(=O)Nc1ccc2ccccc2c1,19%

row,Structure (SMILES),"hERG current change (%, negative = inhibition) at 1uM"
1,CC1CCC(C(C)C)C(OC(=O)Cn2nnc3c(cnn3-c3ccccc3)c2=O)C1 (stereo not drawn),6.96%
2,COc1ccc(OC)c(C2N(c3cc(C)on3)C(=O)C3CCCN32)c1 (stereo not drawn),12%
3,Cc1ccc(-n2c(SCC(=O)Nc3cc(C)on3)nc3c(c2=O)SC(C)C3)cc1 (stereo not drawn),-3.67%
4,CCCCC(CC)C(=O)Nc1cc(C(=O)NCc2ccc(C)cc2)ccc1N1CCC2(CC1)CC(c1cccc(Br)c1)=NO2 (stereo not drawn),19.6%
5,O=C(COc1ccc(Cl)cc1)NCc1n[nH]c(=O)c2ccccc12,11.3%
6,CCOc1ccccc1NC(=O)CSc1n[nH]c(N)n1,16.7%
7,CSc1cccc(NC(=O)c2ccc(NC3=NC4CS(=O)(=O)CC4S3)cc2)c1 (stereo not drawn),7.67%
8,CN1CCN(C(=O)C2=C[C@H](C3CC3)C[C@H](OCc3ccc(CO)cc3)O2)CC1,11.4%
9,CC(C)CN(C(=O)c1ccc(S(=O)(=O)N2CCCC2)cc1)C1CCS(=O)(=O)C1 (stereo not drawn),5.45%
10,CCOCC(=O)Nc1ccc(S(=O)(=O)N2CCOCC2)cc1,11.2%
11,O=[N+]([O-])c1ccc(Sc2ncc3ccccn23)nc1,-3.11%
12,CC(C)(C)n1nc2c(c1NC(=O)c1ccc([N+](=O)[O-])cc1)CS(=O)(=O)C2,8.52%
13,CCCCC(=O)NN(C)c1nc(-c2ccccc2)nnc1C(F)(F)F,7.5%
14,CSc1ccccc1NC(=O)CN(C1CCCCC1)S(C)(=O)=O,16.6%
15,Cc1ccc(C(=O)N/C(=C/c2cccnc2)C(=O)O)cc1,10.3%
16,O=C(CNC(=O)c1ccc(-c2ccccc2)cc1)Nc1ccc(S(=O)(=O)Nc2ncccn2)cc1,8.28%
17,Cn1c(SCC(=O)N2CCc3ccccc3C2)nnc1-c1ccncc1,1.28%
18,N#Cc1c(-c2ccccc2)nc(N2CCN(Cc3ccccc3)CC2)[nH]c1=O,8.95%
19,Cn1c(C(=O)N2COCC2(C)C)cc2c(=O)n3ccccc3nc21,6.95%
20,COc1cccc(CC(=O)OC(C)C(=O)Nc2ncc(Cl)cc2Cl)c1 (stereo not drawn),8.54%
21,CC(C)[C@H](NS(=O)(=O)c1ccccc1)C(=O)OCC(=O)Nc1ccc2c(c1)OCO2,12.1%
22,O=C(Cc1cccs1)NCc1ccccc1F,-11.8%
23,COc1ccc(C(=O)ON=C2CCN(c3ccc([N+](=O)[O-])cc3)CC2)cc1,-57.7%
24,O=S(=O)(c1ccc(F)cc1)N1CN2CCN(C2)C1,8.75%
25,Cc1nnc(SCC(=O)NCc2cccs2)n1-c1ccccc1,11.1%
26,CCn1cc([N+](=O)[O-])c(C(=O)N2N=C(c3ccc4ccccc4c3)CC2c2ccccc2O)n1 (stereo not drawn),1.26%
27,C/C(=N\Nc1ccc(C(=O)O)cc1)c1ccc(Br)cc1.O=S(=O)(O)O,17.6%
